Experimental data as given in the supplement of paper PMC12217912.
The list shows a part of the results. The full chains were built here from the parent and the listed change. Inactive controls read about 0.05.

B1: TEV protease; numbered along this chain (parent)
chain: MGESLFKGPRDYNPISSSICHLTNESDGHTTSLYGIGFGPFIITNKHLFRRNNGTLVVQSLHGVFKVKDTTTLQQHLVDGRDMIIIRMPKDFPPFPQKLKFREPQREERICLVTTNFQTKSMSSMVSDTSCTFPSGDGIFWKHWIQTKDGQCGSPLVSTRDGFIVGIHSASNFTNTNNYFTSVPKNFMELLTNQEAQQWVSGWRLNADSVLWGGHKVFMVKPEEPFQPVKEATQL

Variants of: B1
Assay: raw area under fraction-flipped curve 0-4 h after induction (AUC4h, not background-subtracted), DNA-recorder readout of cleavage of the substrate (dimensionless); higher = more cleavage of the substrate by the protease variant
Conditions: temperature: 34 °C; time window: 0-4 h after rhamnose induction
Method: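 In vivo DNA recorder in E. coli TOP10(DE3) ΔrhaA at 34 °C. Each TEVp single-site mutant (parent TEVp 0) is paired with a single-site variant of the 7-mer TEVs (canonical ENLYFQ|S). The substrate sits between flexible linkers in a Bxb1-sfGFP-TEVs-SsrA fusion, so cleavage stabilises Bxb1 and speeds flipping of a recombination array, read by NGS. The value is the raw area under the fraction-flipped curve over 0-4 h after rhamnose induction (AUC4h), with ≥20 reads per time point. It is not background-subtracted; inactive controls average about 0.047.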
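Note: Bxb1 expression induced with 0.2% (w/v) L-rhamnose at OD600 near 0.5, cultures sampled hourly, flipped fraction per protease–substrate barcode pair counted by paired-end Illumina sequencing.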

| Variant | area with substrate ENLYFQA | area with substrate ENLYFQC | area with substrate ENLYFQD | area with substrate ENLYFQG | area with substrate ENLYFQI | area with substrate ENLYFQK | area with substrate ENLYFQL | area with substrate ENLYFQM | area with substrate ENLYFQN | area with substrate ENLYFQQ | area with substrate ENLYFQR | area with substrate ENLYFQS | area with substrate ENLYFQT | area with substrate ENLYFQW | area with substrate ENLYFQF | area with substrate ENLYFQV | area with substrate ENLYFQH | area with substrate ENLYFQP | area with substrate ENLYFQY | area with substrate ENLYFQE |
| --- | --- | --- | --- | --- | --- | --- | --- | --- | --- | --- | --- | --- | --- | --- | --- | --- | --- | --- | --- | --- |
| E108H | 0.07 | 0.077 | 0.0629 | 0.0717 | 0.0651 | 0.0456 | 0.0499 | 0.0622 | 0.0542 | 0.0662 | 0.0565 | 0.0681 | 0.0555 | 0.0694 |  |  |  |  |  |  |
| K90Q | 0.11 |  | 0.0708 | 0.0831 | 0.061 | 0.0581 | 0.0533 |  |  |  | 0.0682 | 0.104 | 0.0634 | 0.0727 | 0.0882 | 0.0588 |  |  |  |  |
| A207D | 0.1 |  |  | 0.0892 | 0.0603 | 0.0593 | 0.0631 |  | 0.0854 |  | 0.0486 | 0.112 | 0.0638 | 0.0949 | 0.0745 | 0.0418 | 0.0732 | 0.0558 | 0.0724 |  |
| T71D | 0.0646 | 0.0868 | 0.0585 |  |  |  |  |  |  |  |  | 0.0816 | 0.0647 | 0.0588 |  |  |  | 0.0517 | 0.0731 |  |
| F95T | 0.0846 | 0.0752 |  |  |  |  |  | 0.0562 | 0.0347 |  | 0.0526 | 0.0809 | 0.0396 |  |  |  |  |  |  |  |
| S158M | 0.0614 | 0.0574 | 0.0416 | 0.0564 | 0.0531 | 0.0607 | 0.0529 | 0.0569 | 0.0552 |  | 0.0484 | 0.0548 | 0.057 | 0.048 | 0.0549 |  | 0.0598 | 0.045 | 0.0569 | 0.0489 |
| S158W | 0.0515 | 0.0492 | 0.0577 | 0.0478 | 0.0409 | 0.0559 | 0.0488 | 0.0528 |  | 0.0588 | 0.0559 | 0.0517 | 0.0542 |  | 0.0524 | 0.0525 | 0.0438 | 0.0487 | 0.0412 |  |
| Q97F | 0.0832 | 0.0723 |  | 0.0922 | 0.0705 |  |  | 0.0824 |  |  | 0.0631 | 0.0927 | 0.0351 |  | 0.0912 |  |  |  | 0.0637 |  |
| L112P | 0.0529 | 0.0561 |  | 0.0604 | 0.0535 | 0.0536 |  | 0.0536 | 0.0477 |  | 0.0485 | 0.053 | 0.0515 | 0.0537 | 0.0089 | 0.0501 |  | 0.0532 |  |  |
| W199V | 0.0663 | 0.0556 |  | 0.0606 | 0.0657 | 0.0614 | 0.068 | 0.0561 | 0.0669 |  | 0.043 | 0.0652 | 0.0605 | 0.0609 |  |  |  |  |  |  |
| S127V | 0.114 |  |  |  |  | 0.0773 | 0.055 | 0.098 | 0.104 |  | 0.0724 | 0.108 | 0.0776 |  |  |  |  | 0.0644 |  |  |
| T115P | 0.0978 |  |  | 0.0828 |  | 0.0577 |  |  | 0.11 |  | 0.0679 | 0.109 |  | 0.075 |  | 0.0593 |  | 0.0691 | 0.0815 |  |
| F187T | 0.0775 | 0.103 |  | 0.0952 |  |  | 0.0557 |  |  |  |  | 0.09 |  | 0.0484 | 0.0656 |  |  | 0.0261 | 0.0684 |  |
| Q75H | 0.0748 | 0.054 | 0.0741 | 0.0659 | 0.0559 |  | 0.0513 |  | 0.0571 |  | 0.0594 | 0.0758 | 0.0675 | 0.0689 |  | 0.0599 | 0.0586 | 0.0693 | 0.0652 | 0.0552 |
| Q75T | 0.0974 | 0.13 |  |  | 0.0545 |  | 0.0768 | 0.104 | 0.08 |  | 0.0527 | 0.101 |  |  |  |  |  |  | 0.0635 |  |
| V220Y | 0.102 | 0.11 |  | 0.11 | 0.0542 | 0.0635 | 0.0701 | 0.0857 | 0.0518 |  | 0.0673 | 0.101 |  | 0.0591 |  |  | 0.07 | 0.0594 |  |  |
| T132L | 0.0797 | 0.0874 |  | 0.101 | 0.0641 | 0.0457 |  | 0.0739 | 0.0693 | 0.0526 | 0.0531 | 0.0911 | 0.0562 | 0.0592 |  | 0.0656 |  | 0.0398 | 0.0608 |  |
| T132P | 0.11 | 0.0549 |  | 0.0408 | 0.0508 |  | 0.0523 |  | 0.047 |  | 0.0534 | 0.0678 | 0.0557 | 0.0532 |  | 0.0417 | 0.0399 | 0.061 |  | 0.0789 |
| G39P | 0.0476 | 0.0407 | 0.0558 | 0.0978 |  |  | 0.041 | 0.0403 | 0.0373 |  | 0.0416 | 0.041 | 0.0423 | 0.0417 |  | 0.0356 | 0.0461 | 0.037 |  |  |
| P228C | 0.0904 | 0.0901 |  | 0.0962 |  | 0.063 | 0.0584 |  | 0.0819 |  | 0.0551 | 0.105 | 0.0696 | 0.0597 | 0.0797 | 0.0607 | 0.0727 | 0.054 | 0.0855 |  |
| M88K | 0.0552 | 0.0727 |  | 0.0579 |  |  |  | 0.0599 | 0.0633 |  |  | 0.0674 | 0.0619 |  |  |  | 0.0489 | 0.0414 |  |  |
| M83Y | 0.0737 | 0.0904 |  |  |  | 0.0498 |  | 0.0621 | 0.0538 |  | 0.0167 | 0.069 | 0.0514 | 0.0564 | 0.0497 |  | 0.0468 | 0.0674 |  |  |
| S182T | 0.0854 |  |  | 0.101 | 0.0472 | 0.0842 |  |  |  |  | 0.0528 | 0.101 | 0.0645 |  |  |  |  |  |  |  |
| P104E | 0.0525 | 0.0508 | 0.0574 | 0.043 | 0.0428 | 0.0473 | 0.0534 |  | 0.0483 |  | 0.0704 | 0.0521 |  | 0.0421 |  |  | 0.0524 | 0.0605 |  | 0.0427 |
| V78K | 0.0589 |  |  | 0.0511 | 0.0503 | 0.054 | 0.0434 | 0.0561 | 0.052 |  | 0.0444 | 0.0588 | 0.0721 | 0.0552 | 0.0428 | 0.0519 |  | 0.0545 |  |  |
| R109F | 0.107 | 0.124 | 0.082 | 0.0897 |  |  | 0.0561 | 0.0884 | 0.0638 |  |  | 0.099 | 0.0673 |  | 0.0635 | 0.0461 |  |  | 0.0675 |  |
| P93F | 0.0558 |  | 0.0781 |  | 0.0516 |  | 0.0535 | 0.0984 |  |  |  | 0.0807 | 0.0836 |  |  |  |  |  |  | 0.0599 |
| T31L | 0.153 | 0.163 |  | 0.143 | 0.0515 | 0.0529 | 0.0648 | 0.143 | 0.0894 | 0.0646 | 0.0508 | 0.111 |  | 0.0595 | 0.125 |  | 0.0865 |  |  |  |
